# From PubChem BioAssay AID757 (NMMLSC, 2007)
# Among all 190,000 compounds or so, about 520 (0.27%) were called active. The inconclusive results got no clear call from the source; some entries with a clear call stand among them for comparison.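 The calls were made as follows: active = GTP binding activity at least 20 points away from the 100% control level, either lower or higher; inconclusive = compound flagged as likely green fluorescent, judged across all proteins; inactive = the rest.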
# Molecular target: Ras-related C3 botulinum toxin substrate 1 (Homo sapiens) (UniProt P63000)
# Assay: wildtype Rac1 GTP binding modulators, primary screen, biochemical, GST-Rac1 beads, flow cytometry, multiplex (AID 757)
# Details: fluorescent GTP binding, at 10 µM, actives lie on both sides, 0 = cold GTP competed, 100 = untreated
row,Structure (SMILES),GTP binding activity (% of control)
1,CCOC(=O)Nc1ccc(C)cc1NC(=O)OCC,inconclusive: 110%
2,O=C(O)c1ccc2c(=O)n3c(nc2c1)/C(=C/c1cccc(Cl)c1Cl)CCCC3,inactive: 99%
3,CCOC(=O)n1c(=O)[nH]c2ccc(Br)cc21,inactive: 97%
4,O=C/C(=C\Nc1ccc(C(=O)N2CCOCC2)cc1)c1nc2ccccc2o1,inactive: 99%
5,CCOc1ccc(C(=O)Cc2cc(OC)c(OC)cc2[N+](=O)[O-])cc1,inconclusive: 107%
6,CN(C(=O)COc1ncnc2c1cnn2-c1ccccc1)C1CCCCC1,inactive: 102%
7,OC(CNCC(c1ccco1)N1CCCCC1)c1ccccc1 (configuration not stated),inconclusive: 106%
8,CCOCCCn1c(SCC(=O)Nc2ccc(C(N)=O)cc2)nc2ccccc2c1=O,inactive: 99%
9,COc1ccc(-c2cc(C3CC3)nc3sc(C#N)c(N)c23)cc1,inconclusive: 95%
10,COc1cc(C(=S)N2CCCC2)ccc1O,inconclusive: 89%
11,Cc1noc(NS(=O)(=O)c2ccc(N/C=C/C(=O)c3ccc4c(c3)OCO4)cc2)c1C,inconclusive: 85%
12,Cc1ccc(NCc2nnc(SCC(=O)Nc3cccc(O)c3)n2CC2CCCO2)c(C)c1 (configuration not stated),inconclusive: 102%
13,O=C(CN1C(=O)c2cccc3cccc(c23)C1=O)NCCN1CCOCC1,inconclusive: 92%
14,COc1ccc(NC(=O)COC(=O)c2ccc(OCc3c(C)noc3C)cc2)cc1OC,inactive: 103%
15,COCCn1c(SCC(=O)Nc2ccc(OC)cc2)nc2c(oc3ccccc32)c1=O,inconclusive: 93%
16,CCOC(=O)c1ccc(-n2c(C)ccc2C)cc1,inconclusive: 98%
17,Cc1ccc(C(=O)Oc2coc(CSc3nnc(NC(=O)c4cccs4)s3)cc2=O)cc1C,inconclusive: 90%
18,CCCCCCn1c(Br)nc2c1c(=O)n(C)c(=O)n2C,inconclusive: 90%
19,CC12CCC(C(=O)NCCCn3ccnc3)(OC1=O)C2(C)C (configuration not stated),inconclusive: 120%
20,COc1ccc(OC)c(NC(=O)c2ccc(CN3CCOCC3)cc2)c1,inconclusive: 109%
21,Cc1ccc(C(=C2C3C=CC2C2C(=O)NC(=O)C32)c2ccc(C)cc2)cc1 (configuration not stated),inconclusive: 106%
22,Cc1csc(NC(=O)CSc2nnc3c4ccccc4nc(C(C)(C)C)n23)n1,inactive: 101%
23,COc1cccc(/C=C/C(=O)c2cccc([N+](=O)[O-])c2)c1OC,inconclusive: 95%
24,CC(CN1CCOCC1)OC(=O)c1ccccc1Br (configuration not stated),inconclusive: 108%

row,Structure (SMILES),GTP binding activity (% of control)
1,O=C(O)c1ccc(/C=N/NC(=O)c2cc(-c3cccs3)nc3ccccc23)cc1,inconclusive: 92%
2,O=C1CSC(=S)N1/N=C/c1ccc(O)c([N+](=O)[O-])c1,inconclusive: 94%
3,Fc1ccc(C2CC(c3cccs3)=NN2c2ccccc2)cc1 (configuration not stated),inconclusive: 91%
4,COc1ccc(OC)c(CNC(=O)CCNC(=O)Cn2ccc3ccccc3c2=O)c1,inconclusive: 102%
5,Nc1[nH]c(=S)nc2nc(-c3ccccc3)c(-c3ccccc3)nc12,active: 79%
6,O=C(Nc1ccccc1C(=O)N1CCOCC1)C1CCC(=O)N1C1CCCC1 (configuration not stated),inconclusive: 174%
7,O=c1c2c(-c3ccccc3)csc2nc2c3ccccc3c(NCCN3CCOCC3)nn12,active: 55%
8,COc1cc(C(=O)N2CCC(O)(c3ccccc3)CC2)cc(OC)c1OC,inactive: 94%
9,O=C(/C=C/c1c(F)cccc1Cl)Nc1ncccn1,inconclusive: 104%
10,COCC(C)NC(=O)c1cc(-c2ccccc2OC)on1 (configuration not stated),inconclusive: 106%
11,Cc1ccnc(NC(=O)/C=C/c2cccs2)c1,inconclusive: 157%
12,Cc1nc(N/N=C/c2ccccc2)nc(N(C)c2ccccc2)c1[N+](=O)[O-],inconclusive: 111%
13,O=C(NC1CCCCCC1)c1cc(S(=O)(=O)N2CCCCC2)ccc1N1CCOCC1,inconclusive: 104%
14,COc1ccc(CCNC(=O)CCc2ccc(S(=O)(=O)NCC(C)C)cc2)cc1,inactive: 104%
15,O=C(O)c1ccc(N2C(=O)CC(N3CCC(c4nc5ccccc5[nH]4)CC3)C2=O)cc1 (configuration not stated),inconclusive: 91%
16,COC(=O)c1c(N2C(=O)[C@H]3[C@@H](C2=O)[C@]2(C(=O)Nc4ccccc42)N2CCC[C@@H]32)sc(C)c1C,inactive: 103%
17,COc1ccc(-c2cc(C(F)(F)F)n3nc(C(=O)NCc4ccco4)cc3n2)cc1OC,inconclusive: 83%
18,Cc1cccc(NC(=S)NC23CN4CN(CN(C4)C2)C3)c1,inactive: 99%
19,Cc1cccc(C(=O)N(c2ccccn2)C(C)c2ccco2)c1 (configuration not stated),inconclusive: 93%
20,CCOC(=O)C(=O)N1CCC(C(=O)OC)CC1,inactive: 104%
21,O=C(NC1CCCCCC1)C(=S)NCCc1ccccc1,inconclusive: 91%
22,Cn1c2c(c(=O)n(C)c1=O)C(c1ccc(O)cc1)Nc1ccccc1O2 (configuration not stated),inconclusive: 97%
23,CCOCCCNC(=O)c1ccc(N2CCOCC2)c(NS(=O)(=O)c2ccc(OC)cc2)c1,inconclusive: 100%
